Results reported in PubChem BioAssay AID1346428 (National Center for Advancing Translational Sciences (NCATS), 2018).
Where “and” joins values, the source holds several entries; their conditions need not be identical. Identical values can stand only once. In all, about 48,000 compounds went through this assay and about 1,200 (2.5%) were called active. Not shown: some 2% with an inconclusive outcome.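 The calls were made as follows: active = activation of at least 60% and not above a set upper limit (about 1 call in 100 departs from these limits); inconclusive = activation of 40% to 60%, or above that upper limit; inactive = activation under 40%.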 The list shows a part of the results.

target: Probable G-protein coupled receptor 32 (Homo sapiens) (UniProt O75388); assay: qHTS for Agonists of Human Resolvin D1 Receptor DRV1; details: CHO-K1 GPR32 beta-arrestin PathHunter luminescence, 90 min; at 76.9 µM; stronger effect = higher value; zero percent set by DMSO-only wells; also: 0% is about no effect
UniProt O75388, sequence (O75388 whole entry, looked up, the tested form may be a part): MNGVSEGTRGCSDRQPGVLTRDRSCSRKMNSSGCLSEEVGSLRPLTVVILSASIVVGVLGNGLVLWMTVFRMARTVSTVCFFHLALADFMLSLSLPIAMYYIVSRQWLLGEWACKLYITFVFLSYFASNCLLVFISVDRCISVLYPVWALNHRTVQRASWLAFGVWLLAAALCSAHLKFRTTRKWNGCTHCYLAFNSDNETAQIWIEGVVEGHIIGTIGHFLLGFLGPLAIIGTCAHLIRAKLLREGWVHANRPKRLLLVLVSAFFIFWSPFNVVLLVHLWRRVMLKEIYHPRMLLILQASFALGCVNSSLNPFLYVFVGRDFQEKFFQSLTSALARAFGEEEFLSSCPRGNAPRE
Outline: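 Agonism was scored as beta-arrestin recruitment to ProLink-fused GPR32 in stably transfected CHO-K1 cells, giving a chemiluminescent beta-Gal signal; compounds were incubated 90 min at 37 °C.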

activation, inactive:
CCOc1ccccc1NC(=O)c1ccc2oc(=O)c(S(=O)(=O)c3ccc(F)cc3)cc2c1 8.69%
O=c1c(-c2ccc(O)cc2)coc2cc(O)cc(O)c12 -23.9% and -11.5%
COc1ccc(NC(=O)CCS(=O)(=O)c2cc(Br)cc3c2N(C(C)=O)CC3)c(OC)c1 -13.7%
CCn1cc(C(=O)N(C)Cc2ccccc2)c(=O)c2cc(S(=O)(=O)N3CCCCC3)ccc21 10.6%
Cc1cccc(N2CCN(C(=O)Cn3nc(C)c4sc5ccccc5c4c3=O)CC2C)c1 (stereo not drawn) -13%
COc1ccc(-c2onc(C)c2C)cc1S(=O)(=O)NC1CCCCC1 -3.79%
COc1ccc(CNC(=O)CCCCCn2c(=O)[nH]c3ccccc3c2=O)cc1 -3.46%
CCOC(=O)c1[nH]c2ccccc2c1NC(=O)c1cc(Cl)ccc1Cl 42.6%
Cc1ccc(CNc2ccc(-c3nc(-c4cccnc4)no3)cc2[N+](=O)[O-])cc1 3.24%
CCN(CC)S(=O)(=O)c1ccc2c(c1)N(CC(=O)Nc1ccc(F)cc1F)C(=O)C1CCCN21 (stereo not drawn) -29.3%
CCn1cc(C(=O)NCCc2ccc(Cl)cc2)c(=O)c2cc(S(=O)(=O)N3CCOCC3)ccc21 4.07%
COc1cc(NC(=O)Cn2c(C)cc(C)c(C#N)c2=O)cc(OC)c1 -1.43%
CCOC(=O)c1[nH]c2ccccc2c1NC(=O)c1ccc(OC)c(OC)c1 -20.2%
NCCO -16.1%
Oc1cccc(-c2nc3ncccn3c2Nc2cccc(C(F)(F)F)c2)c1 33.4%
COc1ccccc1Nc1nc2c(S(=O)(=O)c3ccc(C(C)C)cc3)nnn2c2ccsc12 -3.93%
O=C(CC(c1cccs1)N1Cc2ccccc2C1=O)Nc1ccc(Cl)cc1 (stereo not drawn) -8.91%
COc1ccccc1Cc1nc2ccccc2nc1SCC(=O)NCc1ccc(F)cc1 0.569%
Cc1ccc2c(=O)cc(C(=O)Nc3ccc(S(=O)(=O)N4CCCCC4)cc3)oc2c1C -16.6%
Cc1cccc(N2CCN(c3ncnc4onc(-c5ccc(F)cc5)c34)CC2C)c1 (stereo not drawn) 1.03%
CCOc1ccc2nc(Cl)c(C3CC(c4ccc(C)cc4)=NN3C(=O)CCCC(=O)O)cc2c1 (stereo not drawn) 1.76%
Cc1ccc(NC(=O)CCc2nc3cccnc3n2-c2ccccc2)cc1 3.61%
Cc1cc(C)c2oc(-c3ccc(NC(=O)c4cc(Br)ccc4Cl)cc3)nc2c1 -4.16%
Cc1c(-c2ccccc2)n(-c2ccc(Cl)cc2)c2nc3c(c(=O)n(C)c(=O)n3C)n12 0.672%
O=C(Cn1c(=O)n(Cc2ccc(C(=O)NCc3ccccc3Cl)cc2)c(=O)c2ccccc21)Nc1ccc(F)cc1 -4.9%
Cc1coc2cc3oc(=O)c(CC(=O)NCCc4ccccc4F)c(C)c3cc12 -8.03%
CCCCC(=O)Nc1nnc(S(=O)(=O)N2CCCCCC2)s1 -7.8%
COC(=O)c1cc2sccc2n1Cc1ccc(F)cc1 -10.1%
Cc1cccc(-c2cc(NC(=O)c3ccccc3C)n(-c3ccccc3)n2)c1 -2.43%
Cc1ccc(C)c(CNC(=O)C2CCCCN2S(=O)(=O)c2ccc(F)cc2)c1 (stereo not drawn) -6.77%
Cc1ccc(C)c(N2CCN(C(=O)CN3C(=O)COc4ccc(S(=O)(=O)N5CCOCC5)cc43)CC2)c1 -2.91%
CCOc1ccc(NC(=O)c2cccc(N3CCCS3(=O)=O)c2)cc1 32.4%
CCN(c1cccc(C)c1)C(CNS(=O)(=O)c1ccccc1)c1ccccc1 (stereo not drawn) -1.63%
CCC(=O)N1c2ccccc2CC1C(=O)NCCCN1CCN(c2ccccc2)CC1 (stereo not drawn) -3.96%
O=C(Nc1ccc(F)c(Cl)c1)C1CCCN(c2ncnc3onc(-c4ccc(F)cc4)c23)C1 (stereo not drawn) -19.3%
CCCS(=O)(=O)c1c(S(=O)(=O)CCC)c2cc(C(C)(C)C)ccn2c1C(=O)c1ccc(OC)c(OC)c1 -23%
COc1ccc(C2C=C(c3ccc(C)cc3)Nc3c(C(=O)Nc4ccccc4)cnn32)cc1 (stereo not drawn) -43.6%
COc1ccc(Br)cc1CNC(=O)CCCn1c(=O)c2cccn2c2cccnc21 -17.6%
Cc1ccc(C)c(NC(=O)c2cc(S(=O)(=O)N3CCc4ccccc4C3)ccc2F)c1 -15.4%
COc1ccccc1CNC(=O)c1cc2sccc2n1Cc1ccc(F)cc1 -0.0875%
CN=C(NC#N)NCCSCc1nc[nH]c1C -13.6% and 2.07%
COc1ccc(-c2noc(-c3ccccc3OCC(=O)Nc3ccc(C(C)=O)cc3)n2)cc1 3.64%
O=C(Cn1ncc2c3ccccc3n(Cc3ccccc3)c2c1=O)N1CCCCCC1 -14.5%
COCCCn1c(SCc2ccccc2F)nc2c(sc3ccccc32)c1=O 1.7%
COc1ccccc1NC(=O)Cn1c(=O)n(-c2ccccc2Cl)c(=O)c2sc3ccccc3c21 2.36%
CCc1cccc(NC(=O)Cn2c(C(=O)OC)cc3occc32)c1 -15.2%
COc1cccc(N2CCN(C(=O)c3cnc4c(-c5ccc(F)cc5)c(C)nn4c3C)CC2)c1 -24.1%
COc1ccc(C(=O)Oc2c(Sc3ccccc3)c(C)nn2-c2ccccc2)c(OC)c1 -5.19%
COc1ccccc1CNC(=O)C(=O)NCC(c1ccco1)S(=O)(=O)c1ccc(F)cc1 (stereo not drawn) -11%
COc1ccc(C)c2sc(NC(=O)c3ccc(S(=O)(=O)N4CCOCC4)cc3)nc12 -2.63%
Cc1cccc(C)c1OCCn1c(CCNC(=O)C2CCCCC2)nc2ccccc21 -32.6%
CCOc1ccc(NC(=O)c2cc(-c3ccc(C)c(F)c3)on2)c([N+](=O)[O-])c1 31.8%
COc1ccc(C2Nc3ccccc3-c3cc(C)nn32)c(OC)c1 (stereo not drawn) -13.2%
